# Test results: PubChem BioAssay AID651820 (National Center for Advancing Translational Sciences (NCATS), 2012)
# Hit rate of the full screen: of about 340,000 compounds, about 12,000 (3.5%) were called active. This list was built around the results that the source calls inconclusive (neither active nor inactive); the mix of calls is not that of the screen. Calls follow the shape of the dose curve; as a rule, active = well fitted inhibition curve with a large enough effect; inconclusive = small, poorly fitted or top-dose-only effect, or another doubt; inactive = no such curve, though single readings can be large or run the other way. No potency is given beside an inconclusive call; the fits are too rough.
# Assay: qHTS Assay for Inhibitors of Hepatitis C Virus (HCV)
# Conditions: Huh7.5.1 HCVcc-Cre (HCVcc is cell-culture hepatitis C virus) infection, luciferase reporter, 44 h; activity change, negative = inhibition: at 41.8 µM (top of the series)
# Text: Hepatitis C virus (HCV) infects about 200 million people in the world. Many infected people progress to chronic liver disease including cirrhosis with a risk of developing liver cancer. To date, there is no effective vaccine for hepatitis C. Current therapy based on interferon is only effective in about half of the patients and is associated with significant adverse effects. The fraction of people with HCV who can complete a successful treatment is estimated to be no more than 10 percent. Recent development of direct-acting antivirals against HCV, such as protease and polymerase inhibitors, is promising but still requires combination with peginterferon and ribavirin for maximal efficacy. In addition, these agents are associated with high rate of resistance and many have significant side effects. Due to the lack of a culture system for infectious HCV, the search for new HCV drugs has been greatly hampered. […] High-throughput screening (HTS) with an infectious HCV system would cover the complete spectrum of potentially druggable targets in all stages of HCV lifecycle, and would have more biological relevance than other cell-based assays. Moreover, targeting several key processes in the viral life cycle may not only increase antiviral efficacy; more importantly, it may also reduce the capacity of the virus to develop resistance to the compound. The goal of this project is to identify novel HCV inhibitors as new therapies for hepatitis C, using a highly sensitive and specific assay platform which is based on a HCV infectious cell culture system established in the laboratory and adapted for high-throughput HCV drug screen. NIH Chemical Genomics Center [NCGC] NIH Molecular Libraries Probe Centers Network [MLPCN] MLPCN Grant: MH095511 Assay Submitter (PI): Jake Liang, NIDDK
# The assay will start with plating 1,000 cells/well in 3 µL volume and culture for 4 h. Then 23 nL of compounds from the library collection will be added to each well, followed by adding 2.5 µL of HCVcc-Cre virus (~ 0.5 moi) and further cultured for 44 h before the luciferase assay. A volume of 4.5 µL luciferase substrates will be added to each well and the plates will be incubated at room temperature for 15 min. and then read for 15 sec. for the luciferase activity
# % is scaled to controls: 0 for no effect and ±100 for the full control effect; tags tell the direction and shape of the fitted curve.
Compound,"activity change, negative = inhibition",Potency
CC(CN(C)C)CN1c2ccccc2CCc2ccccc21 (stereo unspecified),inactive: -3.78%,–
COc1ccc(OC)c(Nc2cc(C)nc3nc(C)nn23)c1,–,"inconclusive [inhibitor, full curve, poor fit]"
CC1c2[nH]c3ccccc3c2CCN1C(=O)Nc1ccccc1 (stereo unspecified),–,"inconclusive [inhibitor, single point]"
COC(=O)CCC(=O)N(C)CC1CCCN(CCc2cccc(C(F)(F)F)c2)C1 (stereo unspecified),inactive: -5.43%,–
CCC12CN3CCN(CC(C3)/C1=N\NC(=O)c1ccc(C(C)(C)C)cc1)C2,–,"inconclusive [inhibitor, partial curve]"
Brc1cc(Br)c2ncnc(N3CCCCC3)c2c1,–,"inconclusive [inhibitor, single point]"
CCOc1ccc(-c2cc(N)n(S(=O)(=O)c3cccc4nsnc34)n2)cc1,–,"inconclusive [inhibitor, single point]"
C/C(=N\NC(=O)C(c1ccccc1)c1ccccc1)c1ccccn1,–,active: 11.2 µM
Cc1cc2cc(CNS(=O)(=O)c3ccccc3)ccc2n1C,–,"inconclusive [inhibitor, partial curve]"
COc1ccccc1C(=O)N(C)c1nnc(-c2ccccc2)s1,–,"inconclusive [inhibitor, single point]"
CC1CCN(c2nc3ccc(C(=O)N4CCN(Cc5ccccc5)CC4)cc3s2)CC1,–,active: 11.2 µM
COC(=O)c1ccc(OC(=O)C2CC(=O)N(c3cccc(C)c3)C2)cc1 (stereo unspecified),inactive: 1.43%,–
Cc1onc(-c2ccccc2)c1C(=O)OCC(=O)Nc1cccc(Cl)c1,–,"inconclusive [inhibitor, partial curve]"
CN1C(=O)C(=Cc2ccc(N3CCCCC3)o2)C(=O)N(C)C1=S,inactive: 10.6%,–
COc1ccc2c(c1)C1=NN(/C(C)=C\C(C)=O)C(c3ccccc3)C1CC2 (stereo unspecified),–,"inconclusive [inhibitor, single point]"
COc1ccc(NC(=O)CSc2nc3c(c(=O)n2-c2ccc(C)cc2)SCC3)c(OC)c1,–,"inconclusive [inhibitor, partial curve]"
Cc1cc(N2CC(C)OC(C)C2)nc(C(C)C)n1 (stereo unspecified),–,"inconclusive [inhibitor, partial curve]"
COc1ccc(-c2cc(C)no2)cc1S(=O)(=O)N1CCCN(Cc2ccccc2Cl)C1,–,"inconclusive [inhibitor, partial curve]"
COc1ccc(/C=N/NC(=O)c2cccc([N+](=O)[O-])c2)c2ccccc12,–,"inconclusive [inhibitor, full curve]"
c1cnc(SCCOc2ccc3c(c2)CCC3)nc1,inactive: 9.27%,–
COc1cc(-c2cc(C(=O)Nc3ccncc3)c3ccccc3n2)cc(OC)c1OC,–,"inconclusive [inhibitor, partial curve]"
c1ccc2c(c1)ncn2CCCCOc1ccc2c(c1)CCC2,–,"inconclusive [inhibitor, single point]"
COc1ccc(OC)c(NC(=O)c2cc(-c3cc(Cl)ccc3O)n[nH]2)c1,–,active: 7.08 µM
Cc1ccccc1-n1nc(C)c2cc(C(=O)N3CCN(S(=O)(=O)c4ccc(Cl)cc4)CC3)sc21,–,"inconclusive [inhibitor, single point]"

Compound,"activity change, negative = inhibition",Potency
COC(=O)N/N=C/c1c[nH]c2ccccc12,inactive: -6.79%,–
C=C(C)c1cccc(C(C)(C)NC(=O)N(Cc2ccccc2)Cc2ccco2)c1,–,"inconclusive [inhibitor, single point]"
Cc1ccc(C)n1-c1ccc(C(=O)/C=C/N(C)C)cc1,–,"inconclusive [inhibitor, partial curve, poor fit]"
COC(=O)c1c(C)[nH]c(C(=O)OCc2csc(CC(=O)Nc3ccccc3C)n2)c1C,–,"inconclusive [inhibitor, partial curve]"
COC(=O)[C@@]1(Cc2ccccc2)[C@H]2C(=O)N(C)C(=O)[C@H]2[C@H]2CN=C(SCc3ccc(C)cc3)N21,inactive: 12.6%,–
Cc1nc(-c2ccc(NC(=O)c3ccccc3C)cc2)cs1,–,"inconclusive [inhibitor, partial curve]"
CCOC(=O)COc1ccccc1C(=O)c1cnn(-c2ccccc2)c1,inactive: -27.6%,–
COc1ccccc1-c1noc(-c2ccccc2C(=O)Nc2ccccc2)n1,–,"inconclusive [inhibitor, single point]"
COc1cccc(/C=N/NC(=O)c2ccc(OCc3cccc(Br)c3)cc2)c1,–,"inconclusive [inhibitor, single point]"
O=C(CC1C(=O)NCCN1Cc1ccc(-c2ccccc2)cc1)NC1CCC1 (stereo unspecified),inactive: 13.4%,–
CCCCOc1ccc(C(=O)NCC(=O)NCC(c2ccco2)N2CCCCC2)cc1 (stereo unspecified),–,"inconclusive [inhibitor, single point]"
CC(/C=C1\SC(=S)N(CCC(=O)Nc2ccc(O)cc2)C1=O)=C\c1ccccc1,–,active: 7.94 µM
Cc1cc(NC(=O)c2ccc(NC(=O)C3CC3)cc2)no1,–,"inconclusive [inhibitor, partial curve]"
O=C(O)c1ccc(OCc2ccc(C(=O)O)o2)cc1,inactive: 2.35%,–
C=C(C)CSc1nnc(-c2ccccc2)n1N,inactive: 21.1%,–
CCOC(=O)/C=c1/s/c(=C\c2c(OC)ccc3ccccc23)c(=O)n1CC(=O)NCC1CCCO1 (stereo unspecified),–,"inconclusive [inhibitor, single point]"
Cc1ccc(C)c(NC(=O)c2ccc3c(c2)N(Cc2ccc(F)cc2)C(=O)CS3=O)c1 (stereo unspecified),–,"inconclusive [inhibitor, single point]"
CC(=O)Nc1ccc(S(=O)(=O)NCCC(=O)N2CCC(Cc3ccccc3)CC2)cc1,inactive: -6.95%,–
CCCOc1ccc(-c2nnn(CC(=O)N3CCCCC3)n2)cc1,–,"inconclusive [inhibitor, single point]"
COc1ccc(C(=O)N/N=C/c2cccc3cccnc23)cc1,inactive: -16.3%,–
CCOc1ccc(C(=O)NCC(c2cccs2)N(C)C)cc1OCC (stereo unspecified),–,"inconclusive [inhibitor, single point]"
Cc1ccc(C)c(NC(=S)NCCN(C2CCCCC2)C2CCCC2)c1,–,"inconclusive [inhibitor, partial curve, poor fit]"
CC(=O)Nc1ccc(NS(=O)(=O)c2ccc3[nH]c(=O)[nH]c3c2)cc1,–,"inconclusive [inhibitor, single point]"
Cc1ccc(Cn2ccc(NC(=O)c3cc(CC(C)C)on3)n2)cc1,–,"inconclusive [inhibitor, single point]"

Compound,"activity change, negative = inhibition",Potency
Cc1nn(-c2ccccc2)c(Cl)c1CN(C(=O)CCl)c1ccc(Cl)cc1,–,active: 10 µM
COc1ccc(CC(=O)Nc2cc(S(=O)(=O)Nc3ccc(OC)cc3)ccc2OC)cc1,–,active: 12.6 µM
COCCNC(=O)C(c1ccc(C)o1)N(C(=O)c1snc(C(N)=O)c1N)c1cc(C)cc(C)c1 (stereo unspecified),inactive: -9.51%,–
CCc1cc(C(=O)Nc2cc(S(=O)(=O)N(CC)CC)ccc2N2CCOCC2)sc1C,–,"inconclusive [inhibitor, partial curve, poor fit]"
COc1ccc(-c2nnc(SCC(=O)N3CCCCC3)o2)cc1OC,–,"inconclusive [inhibitor, single point]"
Cc1cccc(NC(=O)c2sccc2-n2cccc2)c1C,inactive: -7.46%,–
CC(C)(C)OC(=O)NCCCC[C@H](NC(=O)c1nc[nH]c1C(=O)NC(c1ccccc1)c1ccccc1)C(=O)OC(C)(C)C,inactive: -14.5%,–
Cc1cccc(N=C2NN=C(c3ccccc3F)CS2)c1C,–,"inconclusive [inhibitor, single point]"
CC(NC(=O)c1ccco1)c1nc(-c2ccc(C(C)(C)C)cc2)no1 (stereo unspecified),–,active: 15.8 µM
O=C(c1cc2ccccc2oc1=O)N1CCN(c2ncccn2)CC1,inactive: 12.7%,–
COC(=O)c1ccc2c(=O)n(Cc3ccco3)c(SCC(=O)Nc3ccccc3Cl)nc2c1,–,"inconclusive [inhibitor, partial curve]"
COc1ccc(-c2nnc(-c3cccnc3)o2)cc1OC,inactive: 11.1%,–
Cn1nccc1C(=O)N1CCCC(C(=O)c2cccc3ccccc23)C1 (stereo unspecified),–,"inconclusive [inhibitor, single point]"
Cn1c(SCC(=O)N2CCCc3ccccc32)nc2ccccc2c1=O,–,active: 12.6 µM
CCN(c1ccc(OC)cc1)S(=O)(=O)c1nnc(NC(=O)COc2ccc(C)cc2)s1,–,"inconclusive [inhibitor, single point]"
O=C(Nc1ccc2c(c1)Cc1ccccc1-2)c1ccc(Br)o1,–,"inconclusive [inhibitor, single point]"
N#CCSc1nnc(COc2cccc3ccccc23)n1-c1ccccc1,–,"inconclusive [inhibitor, single point]"
CC(C)OCCCn1c(=S)[nH]c2ccc(N3CCOCC3)cc2c1=O,–,"inconclusive [inhibitor, single point]"
COc1cc(NC(=O)c2nnn(Cc3ccc(SC)cc3)c2N)cc(OC)c1,–,"inconclusive [inhibitor, single point]"
CCOC(=O)c1c(C)[nH]c(C2=NNC(=Nc3cccc(Cl)c3)SC2)c1C,–,"inconclusive [inhibitor, single point]"
O=C(O)c1cc(O)ccc1O,inactive: 2.3%,–
CCN(c1ccc(NS(=O)(=O)c2cc(Cl)ccc2Cl)cc1)C(C)C,–,"inconclusive [inhibitor, single point]"
CCOC(=O)C1=C(C)N(C[C@@H]2CC[C@@H](Cc3ccc(-c4ccccc4)cc3)O2)C(=O)NC1c1ccc(Cl)cc1 (stereo partly specified),–,"inconclusive [inhibitor, single point]"
